To fix the notation:
B1: CPEB3 Ribozyme (parent)
chain: UAACAGGGGGCCACAGCAGAAGCGUUCACGUCGCAGCCCCUGUCAGAUUCUGGUGAAUCUGCGAAUUCUGCUGUAUAUCUC

Read counts are not given, so values of variants with three or more changes are uncertain.

Variants of B1 are the subject of the series. Nature of the series: self-cleavage, relative activity (ratio to wild type); higher = more cleavage; in vitro, sequencing. Summed up:
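Relative activity compares each variant's cleaved/total read fraction with that of the unmutated ribozyme. To get these fractions, barcoded CPEB3 ribozyme libraries from rounds of error-prone PCR were transcribed with T7 RNA polymerase for 5 hours at 37°C and then given 15 min of DNase I treatment before EDTA was added. The RNAs were reverse transcribed with template switching and sequenced on Illumina, and DNA sequencing linked barcodes to variants. A minimum of 5 reads applied, and three batches were averaged.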
Consider G7C U25C U51C U76A U80C, for which the self-cleavage is 0.25.
Under G8A A20U U49C stands 0.17; under G6A U26G G42U U78C, 0.04; under G6U U31A A56U, 0.25.
Regarding G6U A15U A47C, the self-cleavage was determined as 0.
The same measure for G6U A13G U31G A45U A64G U78C: 0.35; for G7A A18U A35G U72C: 0.35; for G6C A13U A28U C39A A56G: 0.05.
For G7A A18G A64G U76C A77G, the self-cleavage turned out to be 0.04.
The same measure for G8A A13U U26C U60A A65G: 0.07; for G8A A45G U49C: 0.37.
As to G7U A20U A45U G63A, the self-cleavage came out at 0.17.
With G7C U26A U43C U49C U67C, the self-cleavage is 0.06.
Under G8A G19C G30A U41C A56G U67C C71A stands 0.03.
As for G8A A13U A15C A21G A45U U49A, the self-cleavage was 0.19.
Regarding G6U A28U A35U U43C A45G U54C G61C, the self-cleavage stood at 0.04.
The same measure for G7C A15G U51G A56U: 0.06.
With G8A A13G A28U U76C, the self-cleavage is 0.23.
The same measure for G6U A20G G33A A56U U78A: 0.09; for G7A G36A A47G U66C A75U: 0.06; for G8A C11G A21G C62A: 0.04.
The same measure for G7U C17U A47U U54C A64G: 0.08.
In the case of G7A G55U U72C, the self-cleavage is 0.28.
The same measure for G6A U43A U60A U72C: 0.15; for G8A A13C C79U: 0.22.
The same measure for G7U G10A A15U U31C G52C: 0.34; for G7A U26G U51A U54A A64U: 0.06; for G8A A35G U41A: 0.07.
As to G8A A15G U26C U43C U67A C81U, the self-cleavage worked out at 0.06.
The same measure for G7A U43A C62G U74A U80C C81G: 0.13.
Consider G7A A20U U41C A45U, for which the self-cleavage is 0.05.
With G8A A13U A18U U26A A65G U74A, the self-cleavage was found to be 0.04.
Under G7A A21G U26C A57U stands 0.09; under G6U G9U U49C A64G G73A A75U, 0.27.
The same measure for G6U G30A G46A U67C A75U: 0.06; for G6A U26C U43C A47U G53U U54C: 0.11.
The same measure for G8A C11G A56G A64G U69A: 0.05.
In the case of G7U A15G A47U U69A U80C, the self-cleavage turned out to be 0.02.
Consider G8A A18U G61U, for which the self-cleavage worked out at 0.1.
The same measure for G6C U26A A77G: 0.08; for G8A A15G U41A U54A U76A: 0.38; for G7C A18G U43C G52A U60C: 0.37.
The same measure for G7C U31A U51C A56U U58C: 0.06; for G7A A18G G24U U25A G55A U67A A77G: 0.03.
In the case of G6U A28G U31C U72C U76C, the self-cleavage stood at 0.09.
The same measure for G7C U41C A57G U78C: 0.31.
Consider G8A A57G U69A, for which the self-cleavage was determined as 0.17.
G6U A18G U26A U60C U76A: the self-cleavage was 0.06.
Under G8A A15U U26C U43C U66C stands 0.04; under G7U U58C U69A, 0.2; under G8A U25C A35G A45U U67A, 0.15.
Under G7A G10C U25A A64U stands 0.06; under G8A C12U U41C, 0.28.
Consider G8A G22C A35G U60C, for which the self-cleavage was found to be 0.2.
Consider G7U A13G A15G U69C U80C, for which the self-cleavage was determined as 0.22.
The same measure for G6C C44U A56G: 0.29; for G7A A56G U72C U80A: 0.06.
For G7A A15G A18G U25C A45U A56U, the self-cleavage came to 0.31.
On to G6A U51A U54C A64U, for which the self-cleavage came out at 0.15.
Under G7A C32U A47G stands 0.42; under G8A A20U A21G U41A A64U, 0.04.
G7A A15G A45G U54C A64U U69C: the self-cleavage is 0.03.
Take G6U U26C C44G U78C: the self-cleavage came out at 0.21.
The same measure for G8A A35G U66C: 0.28; for G6C A18G U25C U60C: 0.43; for G7A G10A A64G: 0.07.
Under G7C U51A A64G U66C stands 0.07; under G7A U26C U48C A56G, 0.04.
Under G7A A20G G46U U54A U69C A77G stands 0.05; under G8A C34G A57G, 0.36.
As to G7A A15U U31C U41A U43C A56U, the self-cleavage was determined as 0.06.
For the variant G6U A35G C44U A57G, the self-cleavage was determined as 0.04.
Under G8A A21G G22A A45C U49A G53A stands 0.16; under G7A U25C U54A, 0.08.
Under G7A A35U U69C U78C stands 0.06.
The same measure for G8A A13U A20G U74A: 0.32; for G8A A13G A15U U41A: 0.33.
Take G7A A21G A45C U80C: the self-cleavage is 0.28.
The same measure for G7U C11G G33A U48A U78C: 0.06.
For the variant G8A C11A C29U U48A A56U, the self-cleavage is 0.04.
With G6U U26C A28G, the self-cleavage was determined as 0.38.
Under G8A A45C U72A U80C stands 0.06; under G7A A15U U25C U74A, 0.36.
Under G7C A13G G24A U25C U41C stands 0.44; under G8A A20U A35G U74C U78A, 0.31.
For G8A A28C U41C U51C U66C U72C, the self-cleavage worked out at 0.26.
With G8A U25G U31A U51G, the self-cleavage is 0.06.
Regarding G7U G16A U41A U58C U69C, the self-cleavage amounted to 0.05.
For G8A G10A U60A, the self-cleavage amounted to 0.12.
For the variant G8A A18G A21G A35G U69C, the self-cleavage is 0.18.
On to G8A C11U C40A U48G U60A A77G U78C, for which the self-cleavage stood at 0.03.
Consider G7A U51A C62U U67C U74C, for which the self-cleavage was 0.12.
Under G8A A13U C14A A45U U51C stands 0.06.
In the case of G8A G10U G24U A45G A75U, the self-cleavage stood at 0.04.
Turning to G7U U43A A45U U69C, the self-cleavage amounted to 0.05.
The same measure for G8A A21G U26C U67C: 0.05.
The same measure for G8A C14U A15G: 0.15.
The same measure for G8A C37G U49C A65G U66C: 0.04; for G7U U25C A45U A57G A64G: 0.05; for G6C A35U U41C U67C: 0.14.
With G8A A65G A77U, the self-cleavage was determined as 0.08.
Regarding G8A G10A U25C A45C A64G, the self-cleavage was 0.19.
Under G7U G36U U49C U66C U78C stands 0.04; under G7A A21U C37G C59G A64G, 0.03.
The same measure for G8A G10A U26A U54C G55C U67C: 0.04.
The same measure for G7U C11U A13C G22C U41A G73U: 0.21; for G8A U25C U41C U43C A56G U66C: 0.06; for G8A A28G U54G U60C U69A U80C: 0.05.
Consider G8A C37U A56G, for which the self-cleavage was 0.06.
Under G7A U26C U31A A35U U49C U66C A75G stands 0.03; under G7A U25C G30U U76A, 0.34; under G7C U31C U41C A57G U72C C81U, 0.48.
Under G7A A20G G52A A57G A64G stands 0.07; under G8A A28U A35C U41A U43C A45G U54C, 0.04.
Under G7A A13U U58G stands 0.24; under G8A G22C A35G U60C U80A, 0.14; under G6A U31C U41C U54A, 0.1.
In the case of G7C C23U A57G U60C, the self-cleavage was 0.05.
The same measure for G8A C37A U54C: 0.06; for G8A A20G A28G U41G A47U A65G A75U: 0.03.
The same measure for G7U U25C U54C A77G: 0.2; for G8A G16A C17U U25A U43A A65G: 0.06; for G8A A13U U60C U78C: 0.16.
Under G8A A18U A65G stands 0.06.
With G7C U25C A45C A64U, the self-cleavage worked out at 0.15.
Take G7U A20G U51A: the self-cleavage is 0.28.
Under G7U C37A U54C stands 0.06.
Take G8A C11U U41C U49A U69C: the self-cleavage was determined as 0.04.
Under G6U A18U U60A stands 0.38.
Turning to G7C A28G A45U U74A, the self-cleavage turned out to be 0.27.
On to G7A A15G U60C, for which the self-cleavage is 0.08.
On to G6U U48C A64G, for which the self-cleavage was 0.19.
In the case of G7U U51C A56G, the self-cleavage was determined as 0.06.
Under G6U G9U A13G stands 0.07; under G6U A13G A28C U72C, 0.08.
In the case of G6U A57G C62U, the self-cleavage turned out to be 0.16.
Under G7U G19C U49C C62U A65G U72C stands 0.04.
For G8A C12U A28U A64G, the self-cleavage turned out to be 0.15.
For the variant G7U U25C U26C C29A G42A, the self-cleavage was found to be 0.18.
G7A U58A A64U U66C U80C: the self-cleavage came to 0.09.
The same measure for G7U U41C U49C: 0.07; for G6U C23G A45U: 0.11.
As for G6C U26A A56U, the self-cleavage is 0.2.
Under G6U G9A C38U U72C U74C U80C stands 0.1; under G8A A35G U41C A56U, 0.64; under G7C G30A A75G, 0.4.
For the variant G7A U60A U80A, the self-cleavage was found to be 0.08.
The same measure for G8A A35U U43A A75G: 0.09.
Under G8A A65G G70U A77G U80C stands 0.02; under G8A A20G U66C, 0.2.
Regarding G6U A18G U31G A45U A64G, the self-cleavage turned out to be 0.16.
In the case of G7U A45G U51C, the self-cleavage was 0.1.
Under G7C A13G U60A U74C stands 0.37.
Consider G6U C11U A21G U26C A35U C79U, for which the self-cleavage stood at 0.02.
The same measure for G8A G46U A47G: 0.14; for G8A A13U A28G U49C: 0.11; for G7U U43C A45G A57C U66C: 0.34.
Under G6A U54A G61U stands 0.16; under G6U G8A A13G U25A A45G, 0.07; under G7A A18G U26A A35G U48C, 0.26.
Turning to G7U A18G U78C, the self-cleavage came out at 0.2.
G6U A18U U26C A35U U48C C71U: the self-cleavage amounted to 0.05.
Under G8A U25C A45U stands 0.4; under G8A A13U C14G C32A A65G U67C, 0.05; under G7U A35C U58C, 0.17.
G8A A35G U43A G52A U74C U80C: the self-cleavage was 0.69.
With G8A A18U A35U U54A U76A, the self-cleavage was 0.05.

Source of the values: the RNAGym collection of RNA variant scans (doi:10.1093/nar/gkz1192).
